From PubChem BioAssay AID1347417 (National Center for Advancing Translational Sciences (NCATS), 2020)
Out of some 120,000 compounds screened, about 5,300 (4.4%) were called active. This list was built around the results that the source calls inconclusive (neither active nor inactive); the mix of calls is not that of the screen. The call rests on the fitted dose curve; in most records, active means well fitted inhibition curve with a large enough effect; inconclusive means small, poorly fitted or top-dose-only effect; inactive means no such curve, though single readings can be large or run the other way. Potencies beside an inconclusive call are fits to weak or partial responses and may not hold up.

assay: qHTS Primary assay for Inhibitors of Plasmodium falciparum Dd2 growth in vitro; further: nearly all actives have a fitted effect of over 65% in size;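 on activity, negative = inhibition: plate controls were DMSO vehicle for no effect and reference drug for full effect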; conditions: P. falciparum Dd2 growth, SYBR Green, 72 h; activity, negative = inhibition: at 28.9 µM (top of the series) unless noted; series mostly up to 28.9 µM
Outline: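 Readout: SYBR Green fluorescence, 485 nm excitation, 535 nm emission, after ~16 h lysis at 37C. Before that, Dd2-infected red cells (2.5% hematocrit) grew 72 h with compound, 29 uM top final concentration.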
Potency means the concentration at half of the fitted maximal effect; tags describe the fitted curve by direction and shape.

Row | SMILES | Potency | activity, negative = inhibition | outcome
1 | COC(=O)c1ccccc1NC(=O)c1ccc2c(=O)n3c(nc2c1)CCCCC3 | inconclusive: 7.08 µM [inhibitor, partial curve] |  | 
2 | Cc1nc(-c2cnccn2)n(CC(=O)Nc2ccc3c(c2)OCCO3)c(=O)c1C | inconclusive: 20 µM [inhibitor, single point] |  | 
3 | Cc1cccc(CNC(=O)c2c(C)noc2-c2ccc(C(C)(C)C)cc2)c1 |  | inactive: -11.1% | 
4 | CCc1cc2c(-c3ccccc3)cc(=O)oc2c2c1OCN(Cc1ccc(F)cc1)C2 | active: 3.55 µM |  | 
5 | OC[C@@H]1CN(Cc2ccco2)C[C@H]1c1ccccn1 |  |  | inactive
6 | O=C(Nc1ccc(N2CCOCC2)cc1)[C@H]1CN(Cc2ccccc2)C[C@H]1C(=O)O |  | inactive: -9.53% | 
7 | COc1ccc2cc(C(=O)NC3CCN(C(=O)N4CC5CC(C4)[C@H]4CCCC(=O)N4C5)CC3)[nH]c2c1 (some centres undefined) |  |  | inactive
8 | CCCN1CCN(c2cc3c(cc2F)c(=O)c(S(=O)(=O)c2ccc(Cl)cc2)cn3C)CC1 | active: 10 µM |  | 
9 | CN(Cc1nc2ccsc2c(=O)[nH]1)C(=O)C1NCCc2[nH]cnc21 (centres undefined) |  | inactive: -11.4% | 
10 | COc1ccc(-c2ccnc3nc(C4CCC4)nn23)c(F)c1 | inconclusive: 17.8 µM [inhibitor, single point] |  | 
11 | Cn1c(=O)n(C)c2cc(N3CCOCC3)c(NC(=O)c3c(F)cccc3F)cc21 | inconclusive: 20 µM [inhibitor, partial curve, poor fit] |  | 
12 | COc1ccc(C(=O)N2CCC3(CC2)NC(=O)N(c2cccc(F)c2)N3)c(OC)c1 | inconclusive: 11.2 µM [inhibitor, single point] |  | 
13 | Cc1cc(C)c(CNC(=O)c2nc(-c3cccc(N4CCOCC4)c3)cc3[nH]ccc23)c(=O)[nH]1 | active: 8.91 µM |  | 
14 | CNC(=O)C1(C)CN(Cc2ccccc2)Cc2ccc(NCC(C)C)nc21 (centres undefined) | inconclusive: 1.26 µM [inhibitor, partial curve, poor fit] |  | 
15 | Cc1ccc(CN(Cc2cccn2-c2nnc(N3CCCC3=O)s2)C(=O)Nc2ccccc2C(F)(F)F)cc1 | inconclusive: 11.2 µM [inhibitor, single point] |  | 
16 | Cc1ccc(OC2(C(=O)N(C)Cc3n[nH]c4c3CCCC4)CCNCC2)cc1 | inconclusive: 11.2 µM [inhibitor, partial curve] |  | 
17 | C#CCN(C)Cc1nc(C2(O)CCN(C(C)=O)CC2)cs1 | inconclusive: 1.12 µM [inhibitor, full curve, poor fit] |  | 

Row | SMILES | Potency | activity, negative = inhibition | outcome
18 | CC(C)CCN(C)C1CCOc2ccccc21 (centres undefined) | inconclusive: 25.1 µM [inhibitor, single point] |  | 
19 | COCCCn1c(C)cc(C(=O)NC2CCc3nnc(C4CC4)n3CC2)c1C (centres undefined) |  | inactive: -0.515% | 
20 | COc1ccc(CCc2nc3nccc(-c4ccc5c(c4)OCCCO5)n3n2)cc1OC | inconclusive: 1.12 µM [inhibitor, full curve, poor fit] |  | 
21 | Cn1ncc2c(C(=O)NC3CC3)cc(-c3cc(Cl)cc(Cl)c3)nc21 | inconclusive: 2.82 µM [inhibitor, single point] |  | 
22 | O=S(=O)(c1ccc(Cl)cc1)c1nc(-c2ccccc2)oc1N1CCN(c2ccccc2)CC1 | inconclusive: 17.8 µM [inhibitor, single point] |  | 
23 | O=C(NC1CCN(c2cc(-c3ccccc3)[nH]n2)CC1)c1ccc2c(c1)OCO2 | inconclusive: 17.8 µM [inhibitor, single point] |  | 
24 | COc1ccc(Nc2c3c(nc4ccc(NC(=O)/C=C/c5cccc(OC)c5OC)cc24)CCCC3)cc1OC | active: 3.98 µM |  | 
25 | COc1ccccc1NC(=O)Cn1c(-c2ccc(F)cc2)nc(C)c(CCO)c1=O | inconclusive: 10 µM [inhibitor, single point] |  | 
26 | CC(=O)N1CCC(n2nccc2NC(=O)Nc2ccccc2C)CC1 |  | inactive: -5.06% | 
27 | CC(C)(C)C1CCC2(CC1)NC(=O)N(CC(=O)Nc1ccccc1C(F)(F)F)C2=O (centres undefined) |  | inactive: 9.91% | 
28 | O=C(CN1CCCCCC1)N1CC(Oc2ccccc2-c2nc(C3CC3)no2)C1 | active: 11.2 µM |  | 
29 | c1ccc(-c2cc(CC3(NCc4ccco4)COC3)no2)nc1 | inconclusive: 5.01 µM [inhibitor, single point] |  | 
30 | COCCn1c(CO)nnc1C1CC(NC(=O)c2sc(C)nc2C)C1 (centres undefined) | inconclusive: 3.55 µM [inhibitor, single point] |  | 
31 | CC(CNS(=O)(=O)c1ccc2c(c1)CC(=O)N2C)c1ccccc1 (centres undefined) | inconclusive: 17.8 µM [inhibitor, single point] |  | 
32 | Cc1ccc(C(C)C)c(OCCCn2c(=O)oc3ccccc32)c1 | inconclusive: 17.8 µM [inhibitor, single point] |  | 
33 | c1ccc(CN[C@H]2CO[C@H]3[C@@H]2OC[C@@H]3n2cc(CC3CCCCC3)nn2)cc1 |  | inactive: -3.6% [at 44.1 µM] | 
34 | CC(NC(=O)c1ccc2c(c1)N(Cc1ccc(Cl)cc1)C(=O)c1ccccc1S2=O)c1ccccc1 (centres undefined) | inconclusive: 3.16 µM [inhibitor, single point] |  | 
